# Measured values: PMC7819943, “Rice protein-binding microarrays: a tool to detect cis-acting elements near promoter regions in rice”
# Some of the results follow.
# Molecular target: T1, OsWOX13 (Oryza sativa, UniProt Q5QMM3 1-267)
# T1 sequence: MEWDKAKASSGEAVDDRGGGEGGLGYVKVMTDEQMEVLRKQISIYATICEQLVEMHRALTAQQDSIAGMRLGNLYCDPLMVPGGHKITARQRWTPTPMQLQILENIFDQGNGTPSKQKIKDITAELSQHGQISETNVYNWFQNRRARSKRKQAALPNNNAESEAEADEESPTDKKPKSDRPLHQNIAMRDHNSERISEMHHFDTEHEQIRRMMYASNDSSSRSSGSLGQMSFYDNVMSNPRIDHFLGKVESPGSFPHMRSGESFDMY
# Assay: protein-binding microarray (RPBM); PBS, 2% BSA, 51.3 ng/ul salmon testes DNA, 50 uM zinc acetate, 200 nM TF, 25 C, 1 h; high values mean tight binding
# Settings: protein: recombinant; tags: N-terminal polyhistidine and DsRed monomer fusion (pET32a); label: CyDye5-dUTP incorporated in the synthesized complementary strand; 3' TTTTT single-stranded linker to array surface; dsDNA, one strand shown
# In short: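 Binding signal is reported as fluorescence intensity per feature (arbitrary units) from an Axon 4000B scanner. Incubation used 200 nM of each Ni–NTA-purified, N-terminally polyhistidine- and DsRed-fused transcription factor from E. coli BL21-CodonPlus on a double-stranded custom Agilent array for 1 h at 25 °C, with 50 µM zinc acetate in the buffer, followed by washing.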
row,Sequence,binding signal
1,CCCCATATTTTGGTGATTGGAGAAATTAAGGGCCCCTTTGCGGAGTCACCTAGTGCAG,17400 fluorescence intensity (a.u.)
2,TTTAGATTTATTAACATCTATATGGATGTAGGAAATGTTACGGAGTCACCTAGTGCAG,6660 fluorescence intensity (a.u.)
3,ATCTAAAACTAATTAACACTTAACTCAAAAGCTATAAAATCGGAGTCACCTAGTGCAG,5170 fluorescence intensity (a.u.)
4,TTTTGATTTGCCACATTTGCAGTGGCATGGATCCAATTAACGGAGTCACCTAGTGCAG,15000 fluorescence intensity (a.u.)
5,CTGACTGCTTCGTCACCAACTCAACGGATTCCATTTCCGCCGGAGTCACCTAGTGCAG,3700 fluorescence intensity (a.u.)
6,CCTTTGTTTATACCTAATTACTAGAATTACTGTCGTGCACCGGAGTCACCTAGTGCAG,6800 fluorescence intensity (a.u.)
7,GCAAATTGAATTAATTCGTGTGATATTTGTTCTGCACCGGCGGAGTCACCTAGTGCAG,59500 fluorescence intensity (a.u.)
8,ACACGCTACTAATTGTCAGCTTGCCTGTTACGGAGTACATCGGAGTCACCTAGTGCAG,3280 fluorescence intensity (a.u.)
9,CAATTAATCACATATTATTATTTATGTTCAGGAGATTCAACGGAGTCACCTAGTGCAG,10900 fluorescence intensity (a.u.)
10,GACTAATTAAGTTAGAAGCATTAATGTTGCTAGGAGAAAACGGAGTCACCTAGTGCAG,16400 fluorescence intensity (a.u.)
11,CCCACAATTAATTGGGCCTAATGGATCGGTGCCCTTGTGGCGGAGTCACCTAGTGCAG,53600 fluorescence intensity (a.u.)
12,TATAGGGTTTGATTGATCCTGGATGTGCTCCAAGAATCAACGGAGTCACCTAGTGCAG,16000 fluorescence intensity (a.u.)
13,ATAACAGATAGATAGGCTACCCCAAATATTGTACCAGTGTCGGAGTCACCTAGTGCAG,18300 fluorescence intensity (a.u.)
14,CGCCATGATTTTACTATACTTAGCCTAACTAATGCTGTCCCGGAGTCACCTAGTGCAG,9060 fluorescence intensity (a.u.)
15,ATGATGAGAGGTCTAAATTAAAAGATATCTAACAGACTGACGGAGTCACCTAGTGCAG,4400 fluorescence intensity (a.u.)
16,AGTTGTATTGATGGATAGGTTGGTGAGGGGTATTAAATGGCGGAGTCACCTAGTGCAG,12500 fluorescence intensity (a.u.)
17,TTCTTGGTAATCAATCGAATGATCTATAGCTGAAAATTAACGGAGTCACCTAGTGCAG,7100 fluorescence intensity (a.u.)
18,GTTAACTGAAGATTTGGGAGTTGTGAGGAACAATACAAGCCGGAGTCACCTAGTGCAG,3600 fluorescence intensity (a.u.)
19,CAATTGTCCGGATTGAGATATGACTGAAGCGGATGCTGGACGGAGTCACCTAGTGCAG,3220 fluorescence intensity (a.u.)
20,GTAATAGACGAGGCCCATACAAACAGCCATCAAGGCCCAACGGAGTCACCTAGTGCAG,5560 fluorescence intensity (a.u.)
21,CAAATTTGTAATAATTAATACTTAATTAATCATATGCTAACGGAGTCACCTAGTGCAG,43000 fluorescence intensity (a.u.)

row,Sequence,binding signal
1,GTCACTTTCTTTTGTCGATTGACAGAGTCTCGTGCAATTGCGGAGTCACCTAGTGCAG,4740 fluorescence intensity (a.u.)
2,ATGATTATACATTATCATGATAATACGAACAGCATGTGCACGGAGTCACCTAGTGCAG,39100 fluorescence intensity (a.u.)
3,TTGATCTTAATTTGGTGACATTTTGTTCTAAGCAAAGTGTCGGAGTCACCTAGTGCAG,17700 fluorescence intensity (a.u.)
4,AATTTTGATTTTGAACGGCACCGAACGCAGCAAATGGCATCGGAGTCACCTAGTGCAG,3650 fluorescence intensity (a.u.)
5,TGAATTGATTCGTTAGTACATAATTAAGTACTACATCTATCGGAGTCACCTAGTGCAG,9210 fluorescence intensity (a.u.)
6,AATCAATCTTTTGTCTGTTGGATGCACGATGAATCTCAACCGGAGTCACCTAGTGCAG,3600 fluorescence intensity (a.u.)
7,GACAAAATCATGCTACCAATTTGATTTGTGATCTTCCGATCGGAGTCACCTAGTGCAG,14700 fluorescence intensity (a.u.)
8,GTGATTAGGGTAGTGACTGGTGACTAATTCATCACTCACCCGGAGTCACCTAGTGCAG,33800 fluorescence intensity (a.u.)
9,AGTACTGATTGTTCTTTATAATCTTTTAGTACGTTTCATCCGGAGTCACCTAGTGCAG,24700 fluorescence intensity (a.u.)
10,GACTCTAATTGCATGCAGTTCTTCAACTTATTTAGAACGTCGGAGTCACCTAGTGCAG,11300 fluorescence intensity (a.u.)
11,CTCTTGACAGTTGACTAGGGATGACAATTTTACCTATGGGCGGAGTCACCTAGTGCAG,15200 fluorescence intensity (a.u.)
12,ACGTAATGATTACTTTTAGAAAATAAACATATTTAATAACCGGAGTCACCTAGTGCAG,25800 fluorescence intensity (a.u.)
13,CACCAATCAGCCCAGCCCACGCAAAGTATCTCTCTCTCTCCGGAGTCACCTAGTGCAG,10500 fluorescence intensity (a.u.)
14,CGCTAAAATTAGAAGTTTGATTGAAATTAGAACGATGTGACGGAGTCACCTAGTGCAG,29200 fluorescence intensity (a.u.)
15,AAGTTGCCAATTTGATCATCAATTTCAATAGATTAACAACCGGAGTCACCTAGTGCAG,8650 fluorescence intensity (a.u.)
16,TCTGTGGATTACTTTTAAATTACGAATGGAAATTAAAACACGGAGTCACCTAGTGCAG,4110 fluorescence intensity (a.u.)
17,TAAAATTTAAACTAAATAACTAAGCCCGAGTTTAGTTTCACGGAGTCACCTAGTGCAG,9800 fluorescence intensity (a.u.)
18,AAAGATGATAATTTTGTTCCTTTTCCCACAGATATCCAAACGGAGTCACCTAGTGCAG,5780 fluorescence intensity (a.u.)
19,CATAATTGTTTAAGTGGCATGCAAATATAACTAGGGGACACGGAGTCACCTAGTGCAG,24700 fluorescence intensity (a.u.)
20,TGGTTGACTGGCCCACGTGTCGGTGACGGGGAGTTGCCTGCGGAGTCACCTAGTGCAG,19900 fluorescence intensity (a.u.)
21,TTACACGACTAATTAATCTTAGATATATATATATATATATCGGAGTCACCTAGTGCAG,4660 fluorescence intensity (a.u.)

row,Sequence,binding signal
1,AATTCATCAATTGATGGAAAGTGAATATTAGGCCTTGGTCCGGAGTCACCTAGTGCAG,19900 fluorescence intensity (a.u.)
2,AGAAGATTGATAAGATATGTAAAATTAACGAGATGAGCTACGGAGTCACCTAGTGCAG,29800 fluorescence intensity (a.u.)
3,TCGCGCCTCTCCTGCAGCTCCCTCCGTATCAATCCAACGGCGGAGTCACCTAGTGCAG,3210 fluorescence intensity (a.u.)
4,AATTAACATTGACAATTACTTAAGGAGTGCACATTAGTCTCGGAGTCACCTAGTGCAG,9150 fluorescence intensity (a.u.)
5,ATGGATTATTAGATGGATAATATGGGTGGGGATGAAGTGTCGGAGTCACCTAGTGCAG,7060 fluorescence intensity (a.u.)
6,ATCACGGAGGAGGCGTTCGGGGAGGGAGGGTGGGGCGCGCCGGAGTCACCTAGTGCAG,5950 fluorescence intensity (a.u.)
7,TGTATGCTCATCAACTACTGATTATAATTCATTCATTCCTCGGAGTCACCTAGTGCAG,6030 fluorescence intensity (a.u.)
8,CGGTAACTTCCATCCATCAAATCATCAAACCATCCATGCCCGGAGTCACCTAGTGCAG,3630 fluorescence intensity (a.u.)
9,AGTTTATAATTGAACGCAATGATGTAATATAATATTAATGCGGAGTCACCTAGTGCAG,25200 fluorescence intensity (a.u.)
10,AATATTATTGATTAGTTGGGCTTATTCATTCCAAAGAAATCGGAGTCACCTAGTGCAG,19200 fluorescence intensity (a.u.)
11,GGCTTAATTTAGTTTTCGTTGTTTCCGCTCAAACAAATCCCGGAGTCACCTAGTGCAG,19400 fluorescence intensity (a.u.)
12,ATAACTAATTACAGATTGCGACTAATTTGTGAGACAAATCCGGAGTCACCTAGTGCAG,32600 fluorescence intensity (a.u.)
13,TTCTCATCTTAATTTACATCATATGGTATGCATCTCTGCACGGAGTCACCTAGTGCAG,7860 fluorescence intensity (a.u.)
14,AACTTATCAAAATTTAATTGGGATTATTTTGGCGATAATACGGAGTCACCTAGTGCAG,16100 fluorescence intensity (a.u.)
15,ACCAAATTATCCTGTTTATTTCTTAGAAGCAAACTATTTGCGGAGTCACCTAGTGCAG,32000 fluorescence intensity (a.u.)
16,TTTGACGAAATTTCAATCGAAATCATCGAAATTTCGATCACGGAGTCACCTAGTGCAG,13100 fluorescence intensity (a.u.)
17,CCATGCATCTGATTAGTCAAAACTAGCATCCAGTAAGCGACGGAGTCACCTAGTGCAG,6350 fluorescence intensity (a.u.)
18,GTATTAAATATAGACTAATTACAAAACCAATACCATAACCCGGAGTCACCTAGTGCAG,11800 fluorescence intensity (a.u.)
19,TAAAACTAATGGTATTAGACAGGGGCGGAGACAAGGGTGGCGGAGTCACCTAGTGCAG,7740 fluorescence intensity (a.u.)
20,TGTGACACATGTTACACATAATTATTATGTGAGTGGTAAACGGAGTCACCTAGTGCAG,8980 fluorescence intensity (a.u.)
21,ATGGATTGAGTGAGTCGTACTTAAGGACTAGAGCTATGAGCGGAGTCACCTAGTGCAG,6120 fluorescence intensity (a.u.)

row,Sequence,binding signal
1,TCTTCTTCTTCCGTCGCTAATTAGATCGTCACTACCTCTTCGGAGTCACCTAGTGCAG,3310 fluorescence intensity (a.u.)
2,GAATAATGAATGATTAGGAGAGACGTGATTAGTTTAGTAGCGGAGTCACCTAGTGCAG,19600 fluorescence intensity (a.u.)
3,ACAAGTACTTAATGATTAAAATGTGCATGTGCCGAGTATACGGAGTCACCTAGTGCAG,4940 fluorescence intensity (a.u.)
4,CAAACTGATCGTTCAGTCACAGACACAGCTCAGAGCTCTCCGGAGTCACCTAGTGCAG,3380 fluorescence intensity (a.u.)
5,AGTAAATTTACTCTATTTTGATCAAGATATTTTGATCAAACGGAGTCACCTAGTGCAG,15400 fluorescence intensity (a.u.)
6,TCTCTGATTCTCAATTTTCAATTTCTTAATAGAGAAGAAGCGGAGTCACCTAGTGCAG,10100 fluorescence intensity (a.u.)
7,AATGATTTCTCGAGCTGACTAGCTAAAATTTGTAAATGTACGGAGTCACCTAGTGCAG,4360 fluorescence intensity (a.u.)
8,ACTAATCATCACATCGCTGTCTCAGATTCTCAGTGACAGACGGAGTCACCTAGTGCAG,4120 fluorescence intensity (a.u.)
9,ACCTACACTTAATTAGGAGACCACTGTCCTCCTCCCCTCTCGGAGTCACCTAGTGCAG,11400 fluorescence intensity (a.u.)
10,AAATAACTAATTACACACATTGCGTGTAAATTGCGAGACGCGGAGTCACCTAGTGCAG,21000 fluorescence intensity (a.u.)
11,ATGTGCAAATTTCTCTTGATGATGACAGTTCAAAGGATGACGGAGTCACCTAGTGCAG,3480 fluorescence intensity (a.u.)
12,GATTAAGATTTTATCCGATTGATGATGCGCCGTAGCAGTGCGGAGTCACCTAGTGCAG,8650 fluorescence intensity (a.u.)
13,AAACTAATAATTAATTAATCATGTACTAATCTCCTTTTCTCGGAGTCACCTAGTGCAG,51100 fluorescence intensity (a.u.)
14,CCAGATTGAGCTGTTGCGCACCACCATCCTGACCAGCTGCCGGAGTCACCTAGTGCAG,17400 fluorescence intensity (a.u.)
15,ATGGAAAAGCTAATCAATCAATCAATGGTTTGATTAATCACGGAGTCACCTAGTGCAG,47900 fluorescence intensity (a.u.)
16,AGAAGATATGATTTGATGCAATTGAAGTATATTCCACAATCGGAGTCACCTAGTGCAG,7910 fluorescence intensity (a.u.)
17,TTAATTGGGCTGAGATGGTCTGGGCCGTATGCCCGTACACCGGAGTCACCTAGTGCAG,3330 fluorescence intensity (a.u.)
18,CATATGGGATTGCAATTGACTTGCCATTATGGAATTATACCGGAGTCACCTAGTGCAG,6970 fluorescence intensity (a.u.)
19,GCGGTCCATAATTACTGCTAGATAGCATTGCTCAAAGCTACGGAGTCACCTAGTGCAG,6520 fluorescence intensity (a.u.)
20,TAAACCTAATTAATCATCATTAGCAAATGTTTACTGTAGCCGGAGTCACCTAGTGCAG,30400 fluorescence intensity (a.u.)
21,TTCTGCATTTTAGTTCACCAATCAACTAATACTCCTCAGCCGGAGTCACCTAGTGCAG,4080 fluorescence intensity (a.u.)
